Data reported in PubChem BioAssay (NCI).
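Results reflect a 48-hour exposure of cells in 96-well plates to compound at five concentrations. GI50 = concentration required for 50% inhibition of growth.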 Not every entry of the source has a single result; some have several. This list holds those alone. The source may hold further records. For part of these data: A record mostly stands for its own series of concentrations, which the source does not state; some values may only mark the edge of a range.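 TGI marks complete inhibition of growth.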 For part of these data: Results that share an entry are repeats in other runs, samples, wells, individuals or studies. A tag in brackets gives the origin of a value. A, B and so on number the origins entry by entry.

How the values were obtained:
Assay in all cases: growth of human tumour cells (NCI), 48 h
[1] = test system: CCRF-CEM leukemia
[2] = test system: M14 melanoma
[3] = test system: SK-OV-3 ovarian
[4] = test system: NCI-H460 lung
[5] = test system: SR leukemia
[6] = test system: HCT-116 colon
[7] = test system: U251 CNS
[8] = test system: NCI-H23 lung
[9] = test system: OVCAR-8 ovarian
[10] = test system: XF 498 CNS
[11] = test system: SF-268 CNS
[12] = test system: MDA-MB-435
[13] = test system: NCI/ADR-RES ovarian
[14] = test system: HL-60(TB) leukemia
[15] = test system: RPMI-8226 leukemia
[16] = test system: K-562 leukemia
[17] = test system: OVCAR-4 ovarian
[18] = test system: HOP-92 NSCLC
[19] = test system: MOLT-4 leukemia
[20] = test system: IGROV1 ovarian

SMILES: COc1cc2c(c(OC)c1OC)-c1ccc(SC)c(=O)cc1[C@@H](NCc1ccc([N+](=O)[O-])cc1)CC2
- TGI [1]: 696 nM and > 100 µM
- TGI [2]: 315 nM and 79.4 µM
- TGI [3]: 23.9 nM and > 100 µM
- TGI [4]: 21.6 nM and > 100 µM
- TGI [5]: 9.44 nM and > 100 µM
- TGI [6]: 17.4 nM and 1.08 µM
- TGI [7]: 21.5 nM and > 100 µM
- TGI [8]: 9.36 nM and 88.9 µM
- TGI [9]: 28.9 nM and > 100 µM
- TGI [10]: 403 nM and 6.89 µM
- TGI [11]: 526 nM and > 100 µM

SMILES: CCCCCC(O)C(O)CCC[C@H](O)[C@H]1CC[C@H]([C@H]2CC[C@H]([C@H](O)CCCCCCCCCCCCC3=C[C@H](C)OC3=O)O2)O1 (some centres undefined)
- TGI [12]: 7.81 µM and > 100 µM

SMILES: C=C1C(C)C2C(Cc3ccccc3)NC(=O)C23OC(=O)/C=C\CC(=O)CCC(C)C/C=C/C3C1O (centres undefined)
- TGI [1]: 243 nM [mean of 2 tests] and 8.74 µM [mean of 6 tests]
- GI50 [13]: 58.5 nM [mean of 2 tests] and 3.43 µM [mean of 7 tests]
- TGI [14]: 397 nM [mean of 2 tests] and 5.28 µM [mean of 7 tests]

SMILES: Cc1cc(-c2c(F)cc3c4nn([C@H]5CC[C@@H](N(C)C)CC5)c(=O)c-4cn(C4CC4)c3c2F)cc(C)n1
- TGI [15]: 117 nM and 2.61 µM
- TGI [1]: 36.2 nM and 945 nM
- TGI [2]: 230 nM and 3 µM
- TGI [16]: 230 nM and > 100 µM
- TGI [17]: 711 nM and > 22.5 µM
- TGI [18]: 170 nM and 1.76 µM
- TGI [19]: 4.99 nM and 178 nM
- TGI [20]: 810 nM and 10.8 µM

SMILES: COc1ccc(-c2cc3c(C)nc(N)nc3n(C3CCC(OCCO)CC3)c2=O)cn1 (centres undefined)
- TGI [18]: 575 nM [sample A, mean of 2 tests] and 49.9 nM [sample B, 1 test]
